Where “and” joins values, the source holds several entries; their conditions need not be identical. Identical values can stand only once.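 Dose response: 5 concentrations. Exposure: 48 h. Format: 96-well plates. Endpoint: linear interpolation; highest concentration if not reached. GI50 = concentration required for 50% inhibition of growth. At the TGI there is no net growth.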 Some results are limits rather than exact numbers.

For the experiment, the system named is NCI-H322M lung. In words: NCI anticancer screen, dose series, 48 h.
Regarding `COc1cccc(/C=N/[N-]C(N)=O)c1[O-].[Ni+2].[OH3+].c1ccc(-c2ccccn2)nc1`, the TGI was greater than 100 µM.

With `Cc1ccc(NC(=O)C(=O)C(C#N)c2nc(-c3ccc(-c4ccccc4)cc3)cs2)c(C)c1` (stereo not given), the TGI was greater than 100 µM.

As for `O=C1c2ccccc2S(=O)(=O)N1CSC(=S)N1CCCCC1`, the GI50 is greater than 100 µM and the TGI is greater than 100 µM.

On to `COc1c(C(=O)c2ccc([N+](=O)[O-])cc2)cc(C(C)(C)C)cc1C(C)(C)C`, for which the TGI was greater than 100 µM.

Consider `COC(=O)C1OC(O[C@H]2CC[C@]3(C)[C@H]4CC=C5[C@@H]6CC(C)(C)CC[C@]6(C(=O)OC6OCC(O)C(O)C6OC6OC(C)C(OC7OCC(O)C(OC8OCC(O)C(O)C8O)C7O)C(OC7OCC(O)C(O)C7O)C6O)CC[C@@]5(C)[C@]4(C)CC[C@H]3C2(C)C)C(O)C(OC2OCC(O)C(O)C2O)C1O` (stereo not given in full), for which the TGI is 10.1 µM and 12 µM.

Molecule `CCCCCCCCCCCCCC(=O)OCC1OC(n2cc(F)c(=O)[nH]c2=O)C(NC(=O)OCc2ccccc2)C(OC(=O)CCCCCCCCCCCCC)C1O` (stereo not given) came in with a TGI greater than 100 µM.

Consider `O=[N+]([O-])c1ccccc1N/N=C\c1c[nH]c2ccccc12`, for which the GI50 is 19.6 µM and the TGI was greater than 100 µM.

`CC(=O)Nc1ccc(-c2nc3ccccc3s2)cc1I`: the TGI was greater than 100 µM.

Molecule `C[C@]12CC/C(=N\O)C=C1CC[C@@H]1[C@@H]2CC[C@]2(C)C(=N/O)/C(=C/c3ccc([N+](=O)[O-])cc3)C[C@@H]12` registered a TGI of 65.1 µM.

In turn, `COC(=O)/C=C(\C(=O)OC)c1c2c3c(cc(OC)c(OC)c3c3ccccc13)CCN2C` had a TGI greater than 100 µM.

For `NC1CCC(Nc2nc(NCc3ccc(-c4cccs4)nc3)c3ncn(C4CCCC4)c3n2)CC1` (stereo not given), the GI50 is 0.0414 µM and the TGI is 3.03 µM.

`CC(C)(C)OC(=O)NCCc1cccc2c1oc1c(CCC(=O)O)cccc12` returned a TGI greater than 100 µM.

Consider `CCOC(=O)c1c(C)n2c(=O)cc(C)c3c(O)c(O)cc1c32`, for which the GI50 was 2.29 µM and the TGI came out at 9.49 µM.

For `O=C(c1ccccc1)c1ccc(Oc2ccc([N+](=O)[O-])cc2[N+](=O)[O-])cc1`, the GI50 is 12 µM and the TGI came out at 25.9 µM.

In the case of `Cc1cc(S(=O)(=O)Nc2cc(N)[nH]n2)c(SCc2nc(N)nc(N(C)C)n2)cc1Cl`, the TGI was greater than 10 µM.

The molecule `O=C(Nc1ccccc1)N(C1=NCC(CI)S1)c1ccc(F)cc1F` (stereo not given) returned a TGI greater than 100 µM.

`CCc1c(Cc2[nH]c(Cc3[nH]c(C=O)c(C)c3CC)c(CC)c2CC)[nH]c(C=O)c1C` showed a TGI greater than 100 µM.

Take `CC1SC2=NC3=C(c4ccccc4C3=O)C(c3ccc(Cl)cc3)N2C1=O` (stereo not given): the TGI was greater than 100 µM.

`CC(/C(=N\Nc1ccccc1)c1ccc(O)cc1)C1C(=O)Oc2ccccc21` (stereo not given) showed a TGI greater than 100 µM.

`CCCCCCCCOCC(O)COC(=O)CCCCCCC` (stereo not given): the TGI was greater than 100 µM.

The values are drawn from PubChem BioAssay (NCI).
